Measured values taken from the supplement of paper PMC4967469.
IC50 is the fitted dose that halves viability relative to control wells, and lower means more sensitive; where the fit passes the top or lowest dose, that dose stands as a limit. AUC is the area under the same curve over the 256-fold range up to the top dose, as a fraction: 1 means no effect, lower means more sensitive. The top dose, if marked as inferred, was calculated from the reported fits.

Key:
Assay in all cases: Viability of human cancer cell lines after 72 h of drug (GDSC screen)
CAY10603 = compound: CC(C)(C)OC(=O)Nc1ccc(-c2cc(C(=O)NCCCCCCC(=O)NO)no2)cc1 [CAY10603]; conditions: top dose 20 µM; top dose inferred
Protocol: (§1)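 Human cancer cell lines in 384-well plates, medium with 10% serum, drug for 72 h over a 256-fold dose range (nine 2-fold or five 4-fold steps up to the top dose). Adherent lines were fixed and stained with the nucleic acid dye Syto60, suspension lines read with resazurin; signal relative to control wells, capped at 0 and 100%. One two-parameter sigmoid per drug and line, fitted in a mixed model over all curves with the slope shared within a line.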

XMD8-92 = compound: CCOc1cc(N2CCC(O)CC2)ccc1Nc1ncc2c(n1)N(C)c1ccccc1C(=O)N2C [XMD8-92]; conditions: top dose 10 µM; top dose inferred
Protocol: as §1

CH5424802 = compound: CCc1cc2c(cc1N1CCC(N3CCOCC3)CC1)C(C)(C)c1[nH]c3cc(C#N)ccc3c1C2=O [CH5424802]; conditions: top dose 5.12 µM; top dose inferred
Protocol: as §1

ACHP (KIN001-260) = compound: N#Cc1c(C2CCNCC2)cc(-c2c(O)cccc2OCC2CC2)nc1N [ACHP (KIN001-260)]; conditions: top dose 20 µM; top dose inferred
Protocol: as §1

Row | Cell Line | AUC (CAY10603) | IC50 (CAY10603) [µM] | AUC (XMD8-92) | IC50 (XMD8-92) [µM] | AUC (CH5424802) | IC50 (CH5424802) [µM] | AUC (ACHP (KIN001-260)) | IC50 (ACHP (KIN001-260)) [µM]
1 | SW684 (fibrosarcoma, adherent) | 0.967 | > 20 | 0.928 | > 10 | 0.981 | > 5.12 | 0.983 | > 20
2 | SW872 (soft tissue, adherent) | 0.496 | 1.22 | 0.819 | 5 | 0.989 | > 5.12 | 0.981 | > 20
3 | SW948 (large intestine, adherent) | 0.611 | 2.91 | 0.98 | > 10 | 0.975 | > 5.12 | 0.953 | > 20
4 | SW982 (soft tissue, adherent) | 0.596 | 2.32 | 0.831 | 6.6 | 0.979 | > 5.12 | 0.971 | > 20
5 | SW1271 (small cell lung carcinoma, adherent) | 0.504 | 1.28 | 0.931 | > 10 | 0.979 | > 5.12 | 0.857 | > 20
6 | SW1573 (lung adenocarcinoma, adherent) | 0.719 | 6.54 | 0.912 | > 10 | 0.975 | > 5.12 | 0.979 | > 20
7 | SW1710 (bladder, adherent) | 0.591 | 2.24 | 0.863 | 9.08 | 0.985 | > 5.12 | 0.924 | > 20
8 | SW1783 (glioma, adherent) | 0.627 | 2.69 | 0.99 | > 10 | 0.989 | > 5.12 | 0.991 | > 20
9 | T84 (large intestine, adherent) | 0.69 | 4.32 | 0.949 | > 10 | 0.971 | > 5.12 | 0.954 | > 20
10 | T-24 (bladder, adherent) | 0.708 | 4.66 | 0.865 | 8.2 | 0.984 | > 5.12 | 0.981 | > 20
11 | TC-71 (Ewing sarcoma, adherent) | 0.356 | 0.539 | 0.855 | 5.97 | 0.992 | > 5.12 | 0.88 | 14.8
12 | TE-1 (oesophagus, adherent) | 0.962 | > 20 | 0.891 | > 10 | 0.981 | > 5.12 | 0.982 | > 20
13 | TE-4 (oesophagus, adherent) | 0.642 | 3.07 | 0.986 | > 10 | 0.983 | > 5.12 | 0.983 | > 20
14 | TE-5 (oesophagus, adherent) | 0.98 | > 20 | 0.882 | > 10 | 0.984 | > 5.12 | 0.984 | > 20
15 | TE-8 (oesophagus, adherent) | 0.985 | > 20 | 0.93 | > 10 | 0.984 | > 5.12 | 0.969 | > 20
16 | TE-9 (oesophagus, adherent) | 0.987 | > 20 | 0.929 | > 10 | 0.987 | > 5.12 | 0.984 | > 20
17 | TE-10 (oesophagus, adherent) | 0.978 | > 20 | 0.878 | 9.82 | 0.983 | > 5.12 | 0.973 | > 20
18 | TE-12 (oesophagus, suspension) | 0.983 | > 20 | 0.95 | > 10 | 0.953 | > 5.12 | 0.961 | > 20
19 | TGBC1TKB (biliary tract, adherent) | 0.677 | 3.88 | 0.961 | > 10 | 0.988 | > 5.12 | 0.989 | > 20
20 | TGW (neuroblastoma, adherent) | 0.303 | 0.383 | 0.974 | > 10 | 0.978 | > 5.12 | 0.863 | 13.5
21 | TK10 (kidney, adherent) | 0.978 | > 20 | 0.865 | > 10 | 0.972 | > 5.12 | 0.908 | > 20
22 | TK (B-cell lymphoma, suspension) | 0.339 | 0.468 | 0.969 | > 10 | 0.981 | > 5.12 | 0.947 | > 20
23 | TMK-1 (stomach, adherent) | 0.812 | 11.5 | 0.925 | > 10 | 0.986 | > 5.12 | 0.949 | > 20
24 | TOV-21G (ovary, adherent) | 0.727 | 5.92 | 0.907 | > 10 | 0.98 | > 5.12 | 0.961 | > 20

Row | Cell Line | AUC (CAY10603) | IC50 (CAY10603) [µM] | AUC (XMD8-92) | IC50 (XMD8-92) [µM] | AUC (CH5424802) | IC50 (CH5424802) [µM] | AUC (ACHP (KIN001-260)) | IC50 (ACHP (KIN001-260)) [µM]
25 | TOV-112D (ovary, adherent) | 0.481 | 1.11 | 0.886 | > 10 | 0.966 | > 5.12 | 0.966 | > 20
26 | TT2609-C02 (thyroid, adherent) | 0.479 | 1.09 | 0.96 | > 10 | 0.975 | > 5.12 | 0.985 | > 20
27 | TT (thyroid, adherent) | 0.952 | > 20 | 0.949 | > 10 | 0.98 | > 5.12 | 0.981 | > 20
28 | TUR (B-cell lymphoma, suspension) | 0.336 | 0.455 | 0.947 | > 10 | 0.978 | > 5.12 | 0.924 | > 20
29 | TYK-nu (ovary, adherent) | 0.538 | 1.6 | 0.93 | > 10 | 0.98 | > 5.12 | 0.984 | > 20
30 | U-2-OS (osteosarcoma, adherent) | 0.44 | 0.847 | 0.941 | > 10 | 0.968 | > 5.12 | 0.985 | > 20
31 | UACC-62 (melanoma, adherent) | 0.696 | 4.41 | 0.811 | 5.23 | 0.986 | > 5.12 | 0.988 | > 20
32 | UACC-893 (breast, adherent) | 0.738 | 7.73 | 0.978 | > 10 | 0.938 | > 5.12 | 0.964 | > 20
33 | UWB1.289 (ovary, adherent) | 0.638 | 3.63 | 0.889 | > 10 | 0.976 | > 5.12 | 0.979 | > 20
34 | VA-ES-BJ (soft tissue, adherent) | 0.727 | 5.75 | 0.977 | > 10 | 0.986 | > 5.12 | 0.983 | > 20
35 | VAL (B-cell lymphoma, suspension) | 0.184 | 0.14 | 0.911 | > 10 | 0.967 | > 5.12 | 0.86 | 16.9
36 | VCaP (prostate, adherent) | 0.405 | 0.68 | 0.88 | > 10 | 0.892 | > 5.12 | 0.987 | > 20
37 | VMRC-MELG (melanoma, adherent) | 0.605 | 2.46 | 0.933 | > 10 | 0.988 | > 5.12 | 0.951 | > 20
38 | VMRC-RCZ (kidney, adherent) | 0.561 | 1.89 | 0.934 | > 10 | 0.881 | > 5.12 | 0.97 | > 20
39 | WIL2-NS (lymphoid neoplasm, suspension) | 0.039 | < 0.0781 | 0.873 | 6.69 | 0.977 | > 5.12 | 0.913 | 19.6
40 | WM35 (melanoma, adherent) | 0.406 | 0.691 | 0.826 | 6.1 | 0.98 | > 5.12 | 0.857 | 16.4
41 | WM278 (melanoma, adherent) | 0.863 | > 20 | 0.922 | > 10 | 0.983 | > 5.12 | 0.954 | > 20
42 | WM1552C (melanoma, adherent) | 0.556 | 1.78 | 0.941 | > 10 | 0.984 | > 5.12 | 0.987 | > 20
43 | WM-115 (melanoma, adherent) | 0.534 | 1.58 | 0.919 | > 10 | 0.968 | > 5.12 | 0.947 | > 20
44 | WSU-DLCL2 (B-cell lymphoma, suspension) | 0.933 | > 20 | 0.992 | > 10 | 0.99 | > 5.12 | 0.979 | > 20
45 | YH-13 (glioma, adherent) | 0.674 | 3.95 | 0.865 | 9.65 | 0.986 | > 5.12 | 0.971 | > 20
46 | huH-1 (liver, adherent) | 0.949 | > 20 | 0.965 | > 10 | 0.984 | > 5.12 | 0.984 | > 20
47 | no-10 (glioma, adherent) | 0.606 | 2.62 | 0.903 | > 10 | 0.977 | > 5.12 | 0.979 | > 20
48 | no-11 (glioma, adherent) | 0.758 | 8.59 | 0.956 | > 10 | 0.983 | > 5.12 | 0.969 | > 20
